Laboratory results published in PubChem BioAssay AID686971 (National Center for Advancing Translational Sciences (NCATS), 2013).
“And” between values parts separate entries of the source, which are not always exact repeats. Identical values can stand only once. About 7,500 (2.1%) of roughly 360,000 compounds were called active. This list was built around the results that the source calls inconclusive (neither active nor inactive); the mix of calls is not that of the screen. The call rests on the fitted dose curve; in most records, active means well fitted cell-killing curve with a large enough effect; inconclusive means small, poorly fitted or top-dose-only effect, or effect the other way, or another doubt; inactive means no such curve, though single readings can be large or run the other way. Potencies of inconclusive entries are doubtful fits and often do not repeat.

Experiment: qHTS for induction of synthetic lethality in tumor cells producing 2HG: qHTS for the HT-1080-IDH1KD cell line;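 on activity, negative = toxicity: 0% = DMSO wells and -100% = cell-free medium wells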
Settings: HT-1080 IDH1 knockdown viability, ATP luminescence, 48 h; activity, negative = toxicity: at 46.1 µM (top of the series) unless noted
Method in brief: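 After a 2 h attachment period, IDH1KD HT-1080 cells took pin-transferred compound for 48 h at 37 °C; ATP-based luminescence after 10 min room-temperature reagent incubation reported viability.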
Potency means the concentration at half of the fitted maximal effect; tags describe the fitted curve by direction and shape.

Compound	Potency	activity, negative = toxicity
COc1cccc(-c2nn(C)c3sc(C(=O)NCc4ccc(C)o4)cc23)c1	inconclusive: 32.6 µM [cytotoxic, single point]	
CC(=O)Oc1ccc(C(=O)Nc2ccc3c(c2)OCCO3)cc1	inconclusive: 13 µM [cytotoxic, partial curve]	
CCCCn1c(NCc2cc(C)ccc2O)nc2ccccc21	inconclusive: 29.1 µM [cytotoxic, single point]	
Cc1ccc(C(C)C)c(OCc2ccc(C(=O)N/N=C/c3ccc(O)c(O)c3)cc2)c1	inconclusive: 29.1 µM [cytotoxic, single point]	
CCOC(=O)Nc1nnc(Cc2ccc(Cl)c(Cl)c2)s1	inconclusive: 18.4 µM [cytotoxic, partial curve, poor fit]	
CC(NC(=O)C1CCCN1S(=O)(=O)c1ccccc1)c1ccccc1 (stereo not drawn)		inactive: 22.8%
CCn1cc(C(=O)NCc2ccco2)c(=O)c2cc(S(=O)(=O)N3CCCCCC3)ccc21	inconclusive: 29.1 µM [cytotoxic, single point]	
COc1ccc2c(c1)CCN=C2Cc1ccc(OC)c(OC)c1	inconclusive: 29.1 µM [cytotoxic, single point]	
COCCNc1ncnc2c1ncn2[C@H]1CN(Cc2cccs2)C[C@@H](CO)O1	inconclusive: 25.9 µM [rising, single point]	
Cc1cc(S(=O)(=O)N2CCCC(C(=O)Nc3ccc(C(=O)O)cc3)C2)ccc1Cl (stereo not drawn)		inactive: -6.15%
COc1cc(NC(=O)c2cc(C)on2)cc(C(=O)Nc2cccc(C(F)(F)F)c2)c1	inconclusive: 20.6 µM [cytotoxic, single point]	
Cc1ccccc1NS(=O)(=O)c1ccc(OCC(=O)NCc2cccnc2)cc1	inconclusive: 18.4 µM [cytotoxic, single point]	
COc1cc(C2Nc3cccc4cccc(c34)N2)ccc1O		inactive: -16.8%
O=C(Nc1nnc(-c2ccco2)o1)c1ccc(Cl)cc1	inconclusive: 29.1 µM [cytotoxic, single point]	
O=C(Oc1ccc(N(Cc2cccs2)C2=NS(=O)(=O)c3ccccc32)cc1)c1ccc(Cl)cc1		inactive: -5.81%
Cc1[nH][nH]c(=O)c1C(c1ccccc1[N+](=O)[O-])C(C#N)C#N (stereo not drawn)		inactive: -8.37%
COc1ccc(CCCC(=O)N/N=C/c2cccc(OC)c2O)cc1C	inconclusive: 4.61 µM [cytotoxic, partial curve]	
COc1cc2nc(N3CCN(c4cc(C)ccc4C)CC3)nc(N)c2cc1OC	active: 2.59 µM	
COC(=O)c1c(-c2cccc3ccccc23)csc1NC(=O)Cc1ccc(OC)c(OC)c1		inconclusive: -33.3% [cytotoxic]
CC(=O)Nc1ccc(S(=O)(=O)NCCC(=O)NCc2ccco2)cc1		inactive: 0.247%
O=C(/C=C/c1ccccc1Cl)Nc1ccc(-c2nnc3n2CCCCC3)cc1	inconclusive: 14.6 µM [rising, partial curve]	
O=S(=O)(c1ccccc1)c1nc(-c2ccco2)oc1N1CCOCC1		inactive: 6.68%
Cc1cccc2c(C(=O)N3CCN(c4ccccn4)CC3)cc(-c3cccc(Br)c3)nc12	inconclusive: 25.9 µM [cytotoxic, single point]	

Compound	Potency	activity, negative = toxicity
O=C(COc1ccc(C(F)(F)F)cc1[N+](=O)[O-])Nc1cccc(C(F)(F)F)c1		inactive: 20.9%
O=C(CC(C(=O)N1CCc2ccccc21)n1ccnc1)NCC1CCCO1 (stereo not drawn)		inactive: -1.99%
COc1ccc(-c2c[n+]3c4n2CCCCC4=C(c2ccc(Br)cc2)C3)cc1	inconclusive: 22.4 µM [cytotoxic, single point]	
CCc1cccc(C)c1NC(=O)CCCN1C(=O)CN(C)C1=O		inactive: 2.69%
O=C(Nc1ccccc1)c1ccc(CSc2ccccn2)cc1	inconclusive: 10.3 µM [cytotoxic, partial curve]	
CCOC(=O)c1c(NC(=O)C2CC(Cl)=CCC2C(=O)O)sc2c1CCCCC2 (stereo not drawn)	inconclusive: 14.6 µM [cytotoxic, single point]	
Nc1ccccc1-c1ccc(Cl)cc1	inconclusive: 23.1 µM [cytotoxic, partial curve, poor fit]	
Cc1cccc(Nc2ccc(S(=O)(=O)N3CCOCC3)cc2[N+](=O)[O-])c1		inactive: -10.7%
CCOC(=O)C1CCN(C(=O)CSc2n[nH]c(=O)[nH]c2=O)CC1		inactive: 3.37%
CN(C)CCN(C(=O)C1=COCCO1)c1nc2ccc(Cl)cc2s1	inconclusive: 29.1 µM [cytotoxic, single point]	
COc1ccc(N=Cc2ccc(CNS(=O)(=O)c3ccc(Cl)cc3)o2)cc1	inconclusive: 18.4 µM [cytotoxic, partial curve, poor fit]	
CCOc1ccc(/C=C/C(O)=C2/C(=O)N(C)C3(C)CC2c2ccccc2O3)cc1OC (stereo not drawn)	active: 3.66 µM	
Cc1nc2c3cc(F)ccc3n(Cc3ccc(F)cc3)c2s1	inconclusive: 29.1 µM [cytotoxic, single point]	
O=C1C=CC2C3C(=O)N(c4ccccc4)C(=O)C3C1N2Cc1ccccc1 (stereo not drawn)	active: 10.3 µM	
CC(=O)NC(NC(=S)Nc1ccc(N=Nc2ccccc2)cc1)C(Cl)(Cl)Cl (stereo not drawn)	inconclusive: 18.4 µM [cytotoxic, single point]	
Cc1c(Cc2ccccc2)sc(/N=C/c2c(O)ccc3ccccc23)c1C(N)=O	inconclusive: 16.4 µM [cytotoxic, single point]	
CCC(Oc1ccccc1)C(=O)Nc1cc(Cl)ccc1-n1cncn1 (stereo not drawn)		inconclusive: -20.9% [cytotoxic]
CC(=O)Nc1ccc(Nc2c3ccccc3nc3ccccc23)cc1	active: 14.6 µM	
CCOC(=O)CCC(NC(=O)c1cncc(O)c1)C(=O)OCC (stereo not drawn)		inactive: -7.14%
OCCCN=c1cc(-c2ccccc2)oc2ccc(Cl)cc12	inconclusive: 20.6 µM [cytotoxic, single point]	
COc1cc(NS(=O)(=O)c2ccc(N/C=C(\C#N)c3nc4cc(Cl)ccc4o3)cc2)nc(OC)n1	inconclusive: 18.4 µM [cytotoxic, partial curve]	
COc1ccc(C(C)C)cc1S(=O)(=O)n1ccnc1C		inactive: -1.87%
CCOC(=O)CCCCCC(=O)Nc1ccc2c(c1)CC(=O)N([C@H](C)CO)C[C@H](C)[C@H](CN(C)S(=O)(=O)c1ccc(OC)cc1)O2		inactive: 4%

Compound	Potency	activity, negative = toxicity
C/C(=N\Nc1nc2ccccc2[nH]1)c1ccc(Cl)s1	inconclusive: 23.1 µM [cytotoxic, single point]	
Cc1ccccc1CNC(=O)C1CCCN(c2nnc(C)c3c(C)n(-c4ccccc4)nc23)C1 (stereo not drawn)	inconclusive: 29.1 µM [cytotoxic, single point]	
CNc1nc(N)c([N+](=O)[O-])c(NCc2ccccc2)n1		inactive: -19.2%
CCCCN1C(=O)C(CC(=O)NCc2cccc3ccccc23)CC(C(=O)N(C(C)C)C(C)C)=C1C (stereo not drawn)		inactive: -5.6%
N#Cc1c(NCc2ccccc2)ccnc1NCc1cccnc1		inactive: -26.3%
Cc1c(C(=O)N2CCN(C/C=C/c3ccccc3)CC2)oc2c(F)cccc12		inactive: 3.83%
COC(=O)c1ccc(C)c(NC(=O)Cc2coc3cc(OC)ccc23)c1		inactive: -0.752%
COc1ccccc1CCNCc1ccc(OC)c(OCc2ccccc2)c1	inconclusive: 35.5 µM [cytotoxic, single point]	
Cc1cc(C(F)(F)F)nn1CC(=O)NNC(=S)NCC(C)C	inconclusive: 35.5 µM [cytotoxic, single point]	
O=c1c2c(-c3ccco3)csc2nc(SCc2cn3cccnc3n2)n1-c1ccccc1	inconclusive: 18.4 µM [cytotoxic, single point]	
Cc1ccc(NC(=O)CSc2nc(N)c3c4c(sc3n2)CSC(C)(C)C4)cc1	inconclusive: 16.4 µM [cytotoxic, single point]	
Nc1ccc2ccccc2c1N=Nc1ccccc1	inconclusive: 9.2 µM [cytotoxic, partial curve]	
O=C(Nc1cccc(S(=O)(=O)C(F)F)c1)c1ccc(S(=O)(=O)N2CCCCC2)cc1	inconclusive: 20.6 µM [cytotoxic, partial curve]	
COc1ccc(-c2ccc(-c3nc4ccc(C)cn4c3NC3CCCCC3)cc2OC)cc1	inconclusive: 20.6 µM [cytotoxic, partial curve] and inconclusive: 18.4 µM [cytotoxic, single point]	
Cc1ccc(N2C(=O)c3ccccc3NC2(C(=O)O)c2ccccc2)cc1Cl (stereo not drawn)	inconclusive: 20.6 µM [cytotoxic, single point]	
Cc1ccc2c(c1)=N/C(=N\c1[nH]c(O)c3ccccc13)N=2	inconclusive: 29.1 µM [cytotoxic, single point]	
COc1cc(C(=O)Nc2ccc(Br)cc2C(=O)c2cc(OC)c(OC)c(OC)c2)cc(OC)c1OC	inconclusive: 35.5 µM [cytotoxic, single point]	
CC(C)(C)NC(=O)CCN(/N=C/c1ccc([N+](=O)[O-])o1)C1=NS(=O)(=O)c2ccccc21	inconclusive: 23.1 µM [cytotoxic, single point]	
CCNC(=O)C1(C)CCCN(Cc2ccc3ccccc3c2Br)C1 (stereo not drawn)	inconclusive: 29.1 µM [cytotoxic, single point]	
CCOC(=O)CSc1nc2c(c(=O)[nH]1)C(C)(CC)Cc1ccccc1-2 (stereo not drawn)	active: 5.8 µM	
COc1ccc(-c2nnc(CSc3nnc(-c4ccncc4)n3C3CCCCC3)o2)cc1OC	inconclusive: 7.08 µM [cytotoxic, partial curve, poor fit]	
COc1cccc(-c2cc3nc(NCCN4CCCC4)n(C)c(=O)c3s2)c1	inconclusive: 29.1 µM [cytotoxic, single point]	
